Data as given in the supplement of paper PMC10670038.
Where a name gives a salt, the structure may show the parent alone. ± gives the standard deviation of the averaged measurements. Over roughly 2,000 compounds, “relative cell viability vs DMSO, compound + 0.2 uM CuET” has its median near 1; the lowest 2% begin near 0.25. The list shows a part of the results.

The compounds below were run on TE10 (assay: relative cell viability vs DMSO, compound + 0.2 uM CuET (fraction); TE10 is an esophageal squamous carcinoma line; higher = less cytotoxic). Conditions: 2 µM; co-treatment: CuET (bis(diethyldithiocarbamate)copper) 0.2 uM; 48 h.
Experimental: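 TE10 ESCC cells (1,000/well, 384-well plates) were treated with Selleck bioactive library compounds at 2 uM combined with 0.2 uM CuET (copper diethyldithiocarbamate) for 48 h. Viability was read by CellTiter-Glo and expressed relative to DMSO wells. Two technical replicates (A, B).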

SMILES	relative cell viability
Cc1cc(NC(=O)Nc2ccc(N(C)C)cc2)c2cc(F)cc(F)c2n1	1.002 ± 0.0087
Cc1cn([C@H]2O[C@@H](CO)[C@H](O)[C@H]2F)c(=O)[nH]c1=O [Clevudine]	0.769 ± 0.18
CCOC(=O)[C@H](CCc1ccccc1)N[C@@H](C)C(=O)N1Cc2ccccc2C[C@H]1C(=O)O [Quinapril HCl]	1.04 ± 0.026
CC(CCc1ccccc1)NCC(O)c1ccc(O)c(C(N)=O)c1 (stereo not given) [Labetalol HCl]	1.07 ± 0.12
NC1(C(=O)N[C@@H](CCO)c2ccc(Cl)cc2)CCN(c2ncnc3[nH]ccc23)CC1	0.882 ± 0.07
CC1CC(OC(=O)C(O)c2ccccc2)CC(C)(C)C1 (stereo not given) [Cyclandelate]	1.08 ± 0.13
O=C(O)c1cccnc1Nc1cccc(C(F)(F)F)c1 [Niflumic acid]	1.06 ± 0.18
Cc1oncc1C(=O)Nc1ccc(C(F)(F)F)cc1 [Leflunomide]	0.968 ± 0.21
CCn1c2ccccc2c2cc(Nc3ccnc(NCCCN4CCOCC4)n3)ccc21	0.962 ± 0.11
O=C1[C@H](Cc2ccc(O)cc2)N2C(=O)CCN(C(=O)NCc3ccccc3)[C@H]2CN1Cc1cccc2ccccc12	0.844 ± 0.014
CC1(C)S[C@@H]2[C@H](NC(=O)[C@H](NC(=O)N3CCNC3=O)c3ccccc3)C(=O)N2[C@H]1C(=O)O [Azlocillin sodium salt]	1.45 ± 0.15
Nc1nc2c(ncn2[C@@H]2O[C@H](CO)[C@@H](O)[C@H]2O)c(=O)[nH]1 [Guanosine]	1.18 ± 0.058
CC(C)OC(=O)[C@H](C)N[P@](=O)(OC[C@H]1O[C@@H](n2ccc(=O)[nH]c2=O)[C@](C)(F)[C@@H]1O)Oc1ccccc1 [Sofosbuvir (PSI-7977, GS-7977)]	0.976 ± 0.054
COC(c1ccccc1)(c1ccccc1)[C@H](Oc1nc(C)cc(C)n1)C(=O)O [Ambrisentan]	1.1 ± 0.056
CC(C)N(C[C@H]1O[C@@H](n2cnc3c(N)ncnc32)[C@H](O)[C@@H]1O)[C@H]1C[C@@H](CCc2nc3cc(C(C)(C)C)ccc3[nH]2)C1	1.18 ± 0.043
COC(=O)C1=C(C)NC(C)=C(C(=O)OCCN2CCN(C(c3ccccc3)c3ccccc3)CC2)C1c1cccc([N+](=O)[O-])c1 (stereo not given) [Manidipine]	0.882 ± 0.14
COC(=O)C1=C(C)NC(C)=C(C(=O)OCCN2CCN(C(c3ccccc3)c3ccccc3)CC2)C1c1cccc([N+](=O)[O-])c1 (stereo not given) [Manidipine 2HCl]	0.986 ± 0.033
C[N+]1(C)[C@@H]2CC[C@H]1C[C@@H](OC(=O)C(O)c1ccccc1)C2 (stereo not given in full) [Homatropine Methylbromide]	1.13 ± 0.1
C[N+]1(C)[C@@H]2C[C@@H](OC(=O)C(O)(c3cccs3)c3cccs3)C[C@H]1[C@@H]1O[C@@H]12 [Tiotropium Bromide hydrate]	0.962 ± 0.027
Clc1ccc(NN=C(c2ccccc2)c2ccccn2)nc1	0.03199 ± 0.00018
CC(C(=O)O)c1ccc2c(c1)Cc1cccnc1O2 (stereo not given) [Pranoprofen]	1.02 ± 0.056
O=C(N/N=C/c1cc(O)c(O)cc1O)c1cc2ccccc2cc1O [Dyngo-4a]	0.8745 ± 0.0076
Cc1cc(C(N)=O)ccc1-n1c(CCC(=O)O)ccc1-c1ccc(-n2ccnc2)cc1	1.15 ± 0.02
O=C(/C=C/c1ccc2ccccc2n1)c1ccncc1	0.186 ± 0.037

SMILES	relative cell viability
CC(=O)Nc1ccccc1 [Acetanilide]	1.018 ± 0.0034
CC(=O)O[C@]1(C(C)=O)CC[C@H]2[C@@H]3C[C@H](C)C4=CC(=O)C=C[C@]4(C)[C@@]3(F)[C@@H](O)C[C@@]21C [Fluorometholone Acetate]	1.15 ± 0.022
O=C[C@H](O)[C@@H](O)[C@H](O)CO [Xylose]	1.05 ± 0.012
Cc1ccc(-c2csc(NC(=O)c3ccccc3)n2)c(C)c1	1.22 ± 0.19
Cc1cc(C(C)(C)C)c(O)c(C)c1CC1=NCCN1 [Oxymetazoline hydrochloride]	1.13 ± 0.11
CC(C)(C(=O)O)c1ccc(C(O)CCCN2CCC(C(O)(c3ccccc3)c3ccccc3)CC2)cc1 (stereo not given) [Fexofenadine HCl]	1.27 ± 0.31
O=c1cc(N2CCOCC2)oc2c(-c3cccc4c3sc3ccccc34)cccc12	0.829 ± 0.093
COc1ccc([C@@H]2CC(=O)c3c(O)cc(O[C@@H]4O[C@H](CO[C@@H]5O[C@@H](C)[C@H](O)[C@@H](O)[C@H]5O)[C@@H](O)[C@H](O)[C@H]4O)cc3O2)cc1O [Hesperidin]	1.14 ± 0.1
Cn1cnc(-c2cc3nccc(Oc4ccc(NC(=S)NC(=O)Cc5ccccc5)cc4F)c3s2)c1	1 ± 0.012
CO/N=C(\C(=O)N[C@@H]1C(=O)N2C(C(=O)OCOC(=O)C(C)(C)C)=C(/C=C\c3scnc3C)CS[C@H]12)c1csc(N)n1 [Cefditoren Pivoxil]	1.04 ± 0.04
C=C1C(=O)O[C@@H]2/C=C(\C)CC/C=C(\C)CC[C@@H]12 [Costunolide]	0.753 ± 0.011
O=C(Nc1ccccc1)c1cc([N+](=O)[O-])ccc1Cl	0.941 ± 0.1
Cc1onc(-c2ccccc2)c1-c1ccc(S(N)(=O)=O)cc1 [Valdecoxib]	1.01 ± 0.13
CCCc1cc(=O)[nH]c(=S)[nH]1 [Propylthiouracil]	1.06 ± 0.055
C[C@]12CCC(=O)C=C1CC[C@@H]1[C@@H]2[C@@H](O)C[C@@]2(C)[C@H]1CC[C@]2(O)C(=O)CO [Hydrocortisone]	1.06 ± 0.017
CN1CCN(Cc2ccc(NC(=O)Cc3ccc(Oc4cc(NC(=O)C5CC5)ncn4)cc3)cc2C(F)(F)F)CC1	0.9884 ± 0.0017
C=C[C@]1(C)C[C@@H](OC(=O)CS[C@@H]2C[C@H]3CC[C@@H](C2)N3C)[C@]2(C)[C@H](C)CC[C@]3(CCC(=O)[C@H]32)[C@@H](C)[C@@H]1O [Retapamulin]	1.25 ± 0.065
CN(N=O)C(=O)NC1C(O)OC(CO)C(O)C1O (stereo not given) [Streptozotocin (STZ)]	1.12 ± 0.067
Oc1ncnc2[nH]ncc12 [Allopurinol]	1.04 ± 0.05
O=C(CCc1ccc(O)cc1)c1c(O)cc(O)cc1O[C@@H]1O[C@H](CO)[C@@H](O)[C@H](O)[C@H]1O [Phlorizin]	1.11 ± 0.047
COc1cccc2c1C(=O)c1c(O)c3c(c(O)c1C2=O)C[C@@](O)(C(=O)CO)C[C@@H]3O[C@H]1C[C@H](N)[C@H](O)[C@H](C)O1 [Doxorubicin (Adriamycin)]	1.03 ± 0.04
CC1(C)S[C@@H]2[C@H](NC(=O)[C@H](N)c3ccc(O)cc3)C(=O)N2[C@H]1C(=O)O [Amoxicillin]	0.42 ± 0.49
CC1(C)S[C@@H]2[C@H](NC(=O)[C@H](N)c3ccc(O)cc3)C(=O)N2[C@H]1C(=O)O [Amoxicillin Sodium]	1.06 ± 0.069
Cc1cc(C(=O)NOCCO)c(Nc2ccc(I)cc2F)n(C)c1=O	0.783 ± 0.14

SMILES	relative cell viability
Cc1nc(Nc2cnn(C3CCNCC3)c2)nc2c1N(C)C(=O)c1cc3ccccc3cc1N2C	1.14 ± 0.02
OCCOCCN1CCN(C2=Nc3ccccc3Sc3ccccc32)CC1 [Quetiapine Fumarate]	1.09 ± 0.054
Nc1nc(Cl)nc2c1ncn2[C@H]1C[C@H](O)[C@@H](CO)O1 [Cladribine]	1.125 ± 0.011
O=C(C=Cc1ccccc1)NC(NC(=S)Nc1ccc(Cl)cc1)C(Cl)(Cl)Cl (stereo not given)	0.908 ± 0.014
O=C([C@@H](Cc1cccc(C(F)(F)F)c1)NS(=O)(=O)c1cc(F)c2c(c1)CCNC2)N1CCCC1	0.956 ± 0.05
Cc1ccc(Nc2c(F)cccc2Cl)c(CC(=O)O)c1 [Lumiracoxib]	0.945 ± 0.024
O=c1cc(-c2cccc3c2Sc2ccccc2S3)oc(N2CCOCC2)c1	1.21 ± 0.18
Oc1ccc([C@H]2COc3cc(O)ccc3C2)cc1 [Equol]	1.2 ± 0.21
Fc1ccc(C(c2ccc(F)cc2)N2CCN(C/C=C/c3ccccc3)CC2)cc1 [Flunarizine 2HCl]	1.1 ± 0.029
N=C(N)c1ccc(OCCCCCOc2ccc(C(=N)N)cc2)cc1 [Pentamidine]	1.15 ± 0.18
Cc1[nH]c2ccccc2c1CCNC(=O)c1cccs1	1.01 ± 0.15
CCCCC(=O)O[C@H]1CC[C@H]2[C@@H]3CCc4cc(O)ccc4[C@H]3CC[C@]12C [Estradiol valerate]	0.923 ± 0.042
Cc1nc2ccc(-n3ncc(C(=O)c4cc5ccccc5[nH]4)c3N)cc2[nH]1	0.987 ± 0.053
N#Cc1c(O)c2c(-c3ccc(-c4ccccc4O)cc3)csc2[nH]c1=O	1.43 ± 0.18
CC(=O)O[C@@]12CO[C@@H]1C[C@H](O)[C@@]1(C)C(=O)[C@H](O)C3=C(C)[C@@H](OC(=O)[C@H](O)[C@@H](NC(=O)OC(C)(C)C)c4ccccc4)C[C@@](O)([C@@H](OC(=O)c4ccccc4)[C@H]21)C3(C)C [Docetaxel]	1.1 ± 0.15
CC(=O)O[C@@]12CO[C@@H]1C[C@H](O)[C@@]1(C)C(=O)[C@H](O)C3=C(C)[C@@H](OC(=O)[C@H](O)[C@@H](NC(=O)OC(C)(C)C)c4ccccc4)C[C@@](O)([C@@H](OC(=O)c4ccccc4)[C@H]21)C3(C)C [Docetaxel Trihydrate]	1.08 ± 0.012
Nc1ccn([C@@H]2O[C@H](CO)[C@@H](O)C2(F)F)c(=O)n1 [Gemcitabine]	1.03 ± 0.048
COc1ccccc1N1CCN(CCN(C(=O)C2CCCCC2)c2ccccn2)CC1	1.08 ± 0.074
CC1CNc2c(cccc2S(=O)(=O)N[C@@H](CCCNC(=N)N)C(=O)N2CC[C@@H](C)C[C@@H]2C(=O)O)C1 (stereo not given in full) [Argatroban]	0.9507 ± 0.0054
CN(C)CCN(Cc1ccccc1)c1ccccn1 [Tripelennamine HCl]	1.24 ± 0.021
Fc1ccc(Cl)cc1-c1nc(Nc2ccncc2)c2nccnc2n1	0.838 ± 0.11
CO[C@H]1C[C@@H]2CC[C@@H](C)[C@@](O)(O2)C(=O)C(=O)N2CCCC[C@H]2C(=O)O[C@H]([C@H](C)C[C@@H]2CC[C@@H](OCCO)[C@H](OC)C2)CC(=O)[C@H](C)/C=C(\C)[C@@H](O)[C@@H](OC)C(=O)[C@H](C)C[C@H](C)/C=C/C=C/C=C/1C [Everolimus (RAD001)]	0.982 ± 0.013
